In PubChem BioAssay AID1508623 (National Center for Advancing Translational Sciences (NCATS), 2021):
Hit rate of the full screen: of about 48,000 compounds, about 450 (0.94%) were called active. Inconclusive results (about 19%) are left out. Calls follow the shape of the dose curve; as a rule, active = well fitted inhibition curve with a large enough effect; inconclusive = small, poorly fitted or top-dose-only effect; inactive = no such curve, though single readings can be large or run the other way. This is one part of the list.

test: Primary qHTS for Identification of Small Molecule Inhibitors of Huntingtin Promoter Activity; conditions: HEK293 HTT promoter firefly luciferase reporter (activity 0% = vehicle and -100% = no light), 24 h; series mostly up to 57.5 µM; activity change, negative = inhibition: at the top concentration; also: nearly all actives have a fitted effect of over 50% in size
Summary of the method: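 Firefly luciferase readout (Dual-Glo, 10 min RT) after 24 h, 37 °C compound exposure (final up to 57.5 uM) of HEK293 reporter cells cultured 24 h beforehand; PTC124 at 50 uM final as control inhibitor; activity scaled vehicle 0%, zero RLU -100%.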

Activity change, negative = inhibition, inactive:
COc1cccc(NC(=O)Cn2c(=O)n(-c3ccc(CC(=O)NCC4CCCO4)cc3)c(=O)c3ccccc32)c1 (stereo unspecified) 0.987%
CCOc1ccccc1NC(=O)c1cccc2c1C(=O)N(C1CCCCC1)C2 -2.22%
Cc1cc(C)cc(NC(=O)NCCn2nnc3cc(S(=O)(=O)N(C)C)ccc32)c1 -22.2%
CCOc1ccc(C(=O)OCc2cc(=O)n3nc(C4CCCCC4)sc3n2)cc1 -24.5%
Cc1ccc(C)c(NC(=O)CSc2cn(CC(=O)N3CCCC3)c3ccccc23)c1 -20.7%
CCCN1C(=O)C(NC(=O)c2ccccc2OC)(C(F)(F)F)C(C(=O)OC)=C1C (stereo unspecified) -14.8%
CCOc1ccc(NC(=O)Cc2csc(COc3cccc(C)c3)n2)cc1 -5.94%
CCOc1ccccc1C1C(C(=O)Nc2ccccc2OC)=C(C)Nc2nc3ccccc3n21 (stereo unspecified) -2.27%
CCc1nnc2c3ccccc3nc(N3CCN(c4ccc(C)cc4C)CC3)n12 -20.6%
CCOc1ccc(NC(=O)Cn2c(C)ccc(C#N)c2=O)cc1 -7.49%
Cc1cc(C)c(NC(=O)CN(CC(=O)O)CC(=O)O)c(C)c1Br 0.848%
COc1ccccc1CNC(=O)c1ccc(C)c(-n2cnc3cccnc32)c1 -25.5%
COc1ccc(-c2nn(C)c3sc(C(=O)N4CCN(c5cccc(C)c5C)CC4)cc23)cc1OC -4.43%
Cc1cc(Br)ccc1NC(=O)c1cc2c(s1)-c1ccccc1SC2 -22.3%
O=C(CCCn1c(=O)c2cccn2c2cccnc21)NCCc1ccc(Cl)cc1 -5.58%
COc1ccc(CN2C(=O)C(NC(=O)c3ccc(C)cc3)(C(F)(F)F)N=C2c2ccccc2)cc1 (stereo unspecified) -27.6%
COc1ccccc1NC(=O)CSc1nc2c(oc3ccccc32)c(=O)n1-c1ccc(C)cc1 0.663%
COc1ccc(NS(=O)(=O)c2nnc(NC(=O)c3ccccc3F)s2)cc1 14.3%
CCOC(=O)N1CCc2c(sc3c2c(=O)n(-c2ccc(Cl)cc2)c(=O)n3CC(=O)c2ccc(F)cc2)C1 -7.73%
COc1ccc(-n2ccnc(NCCc3ccc(S(N)(=O)=O)cc3)c2=O)cc1 -31.5%
COc1cc(/C=C/c2nc(C#N)c(NC3CCCCC3)o2)cc(OC)c1OC -6.42%
Cc1ccc(CNc2nc3c(S(=O)(=O)c4ccccc4)nnn3c3ccsc23)cc1 -4.51%
CC(O)COc1ccccc1 (stereo unspecified) 9.32%
COc1cc(C2c3c(oc4cc(C)c(C)cc4c3=O)C(=O)N2CCCN2CCOCC2)ccc1O (stereo unspecified) -10.4%
CCOC(=O)c1cc(S(=O)(=O)Nc2ccc(Br)c(C)c2)[nH]n1 -16.8%
Cc1ccc2c(c1)c1c(c(=O)n(-c3cccc(Cl)c3)c(=O)n1CC(=O)N1CCCC1)n2C -10.3%
Cc1c(C(=O)N2CCC(c3nc4ccccc4s3)CC2)oc2cc(Br)ccc12 -6.4%
CCCNC(=O)c1cc2nc(-c3ccc(Br)cc3)cc(C(F)(F)F)n2n1 -11.8%
COc1ccc(Br)cc1CNC(=O)c1cc(=O)[nH]c2ccc(S(=O)(=O)N3CCCC3)cc12 -4.02%
CCOc1ccc(-n2c(SCc3nc(-c4ccc(OC)cc4)no3)nnc2-c2ccncc2)cc1 -24.5%
CCOc1cccc2cc(-c3nc4sc5c(c4c(=O)[nH]3)CCC(C(C)(C)C)C5)c(=O)oc12 (stereo unspecified) -4.93%
CC(C)Cc1ccc(C(C)C(=O)OCc2ccccn2)cc1 (stereo unspecified) -10.1%
CCOc1ccccc1NC(=O)Cn1c(=O)n(CCC(C)C)c(=O)c2cccnc21 -7.29%
O=C(COC(=O)c1cc(-c2cccs2)nc2ccccc12)c1ccc(Br)cc1 8.14%
Cc1nc2ccccc2n1CCc1nc2c3ccccc3nc(SCc3cccc(F)c3)n2n1 -20%
CC1=C(C(=O)Nc2ccccc2)C(c2ccccc2C)n2ncc(C(=O)Nc3ccccc3)c2N1 (stereo unspecified) -17%
Cc1ccc2c(=O)c(C(=O)c3ccccc3)cn(CC(=O)Nc3ccc4c(c3)OCCO4)c2n1 9.99%
Cn1c(=O)c2sccc2n2c(CCC(=O)NCc3ccc(F)cc3)nnc12 -2.35%
COc1ccc(CCNC(=O)CCn2c(=O)c3ccccc3n(CC(=O)Nc3ccccc3F)c2=O)cc1OC -10.5%
O=C1c2oc3ccccc3c(=O)c2C(c2ccc(Br)cc2)N1c1ccccn1 (stereo unspecified) -6.07%
CCCCN(CC)CCNC(=O)Cn1cnc2sc(C)c(S(=O)(=O)N3CCC(C)CC3)c2c1=O -10.9%
COC(=O)c1cnn(-c2ccc(C(=O)Nc3cccc(C(C)=O)c3)cc2)c1N -6.86%
Cc1ccc(NC(=O)Cn2nc(C)c3nn(-c4ccc(Cl)cc4)c(C)c3c2=O)cc1C -15.9%
Cn1c(=O)oc2cc(S(=O)(=O)N3CCC(C(=O)NCc4ccccc4Cl)CC3)ccc21 -14.7%
CC(=O)c1ccc(N2CCN(S(=O)(=O)c3c(C)nc4sc(C)cn4c3=O)CC2)cc1 -25.6%
Cc1cccc(OCc2cc(=O)n3c(-c4ccccc4)csc3n2)c1C 11.2%
CCCn1c(SCc2nc(-c3ccccc3C)no2)nnc1-c1ccc(Cl)cc1 -28.7%
CCc1nn(CC(=O)N2CCN(c3cccc(C)c3C)CC2)c(=O)c2cc3occc3n12 -11.5%
Cc1cccc(N2CCN(C(=O)C3CCC(CNS(=O)(=O)c4ccc(Br)s4)CC3)CC2)c1C (stereo unspecified) -12%
COc1ccc(N2C(=O)CSC23C(=O)N(CC(=O)NC2CCCCC2)c2ccccc23)cc1 (stereo unspecified) -3%
CCCCn1cc(S(=O)(=O)c2ccc(C)c(C)c2)c(=O)c2cc(F)c(N3CCN(C)CC3)cc21 7.29%
NC(=O)CSc1oc(-c2ccco2)nc1S(=O)(=O)c1ccc(Br)cc1 -19.2%
O=C(CN1C(=O)CCSc2ccc(S(=O)(=O)N3CCCC3)cc21)Nc1ccccc1 -7.94%
CCC(C(=O)Nc1ccccc1C(=O)OC)n1c(C)c2cnn(-c3ccccc3)c(=O)c2c1C (stereo unspecified) -12.1%
CCC(Oc1ccccc1)C(=O)Nc1ccc(O)c(-c2nc3cc(C)ccc3o2)c1 (stereo unspecified) 13.3%
COc1ccc(NC(=O)Cn2c(=O)n(CCCC(=O)NCc3ccccc3OC)c(=O)c3ccccc32)cc1Cl -26.6%
COc1cccc(NC(=O)CCS(=O)(=O)c2ccc3c(c2)oc(=O)n3C)c1 -13.3% [at 11.5 µM]
Cn1c(NCCCCO)nc2c1c(=O)n(Cc1ccc(Cl)cc1)c(=O)n2C -15.6%
Cc1ccc(C)c(Cn2c(C(C)NC(=O)c3ccc(F)cc3)nc3ccccc32)c1 (stereo unspecified) 15.1%
Cc1c2cnn(CC(=O)N3CCN(c4ccccc4)CC3)c(=O)c2c(C)n1Cc1ccc(F)cc1 -28%
CCOc1ccccc1NC(=O)CCS(=O)(=O)c1cccc2nsnc12 -6.61%
CCn1c(=O)c2sccc2n2c(CCCC(=O)N3CCN(c4ccc(OC)cc4)CC3)nnc12 -22.3%
CCc1cccc(NC(=O)c2nnn(Cc3ccc(SC)cc3)c2N)c1 3.82%
COc1ccc(N2CCN(C(=O)c3c(C)oc4ncnc(N5CCCCC5)c34)CC2)cc1 -23.4%
CCOCCCNC(=O)C(c1ccccc1)N(Cc1cccs1)C(=O)c1ccc(NC(C)=O)cc1 (stereo unspecified) -8.64%
Cc1cccc(N2CCN(C(=O)C3CCCN(S(=O)(=O)c4cccc5nsnc45)C3)CC2)c1C (stereo unspecified) 9.67%
Cc1cccc(-c2noc(CCCC(=O)NCc3ccco3)n2)c1 -26.6%
O=C(O)Cc1ccc(OCCNC[C@H](O)c2ccccc2)cc1 6.47%
COCCn1c(CCC(=O)Nc2cc(C)ccc2C)nc2cccnc21 9.91%
CC(=O)Nc1ccc(/C=N/NC(N)=S)cc1 8.53%
O=C(Nc1ccc(Br)cc1)C1CCCN(S(=O)(=O)c2ccc(Br)s2)C1 (stereo unspecified) -14.9%
CC(C(=O)O)c1cccc(C(=O)c2ccccc2)c1 (stereo unspecified)
CCOc1ccc(S(=O)(=O)N2CCN(c3cc(Cl)ccc3Cl)CC2)c2ccccc12 6.16%
CCc1ccccc1NC(=O)C(CC)Sc1ncnc2c1sc1ccccc12 (stereo unspecified) 5.32%
O=C(CCCCCn1c(=O)[nH]c2ccccc2c1=O)NCc1cccc(Cl)c1 14.7%
Cn1c(=O)c2c(SCC(=O)N3CCc4ccccc43)nc(-c3cccc(F)c3)nc2n(C)c1=O -10.6%
CCOc1ccccc1CNC(=O)C1CCN(S(=O)(=O)c2cccc3nonc23)CC1 1.7%
O=C(NCc1ccc(Cl)cc1)c1ccc(CSCc2cccc(Cl)c2)o1 -17.4%
Cc1ccccc1OC(=O)c1snnc1C -1.77%
CCOc1cccc2cc(-c3cn4c(n3)sc3cc(C)ccc34)c(=O)oc12 -4.88%
COc1ccc(OCc2nc3ccccc3n2C(C)c2ccccc2)cc1 (stereo unspecified) -8.2%
Cc1ccnc(NS(=O)(=O)c2ccc(NC(=O)C(C)(C)Oc3ccc(Cl)cc3)cc2)n1 -12.8% [at 11.5 µM]
CCOc1ccccc1NC(=O)CSc1nc2c(c(=O)[nH]1)CCC2 -10.3%
Nc1nc(Nc2cccc(C(F)(F)F)c2)sc1C(=O)c1ccccc1 7.07%
Cc1ccc(OCC(=O)Nc2cccc(OCc3cc(=O)n4ccccc4n3)c2)cc1C 38.2%
CCOc1cc(C2Nc3ccccc3-c3nnc(SCc4ccccc4)nc3O2)ccc1OC (stereo unspecified) -1.16%
Cc1cc(Br)ccc1NC(=O)C(Cc1ccccc1)NS(=O)(=O)c1ccc(Br)s1 (stereo unspecified) -29.7%
C#CCn1c(COc2ccccc2C)nc2ccccc21 7.88%
Cc1ccc(-c2noc(-c3ccc(N4CCC(C)CC4)c([N+](=O)[O-])c3)n2)cc1 1.93%
Cc1ccc(-n2cc(-c3ccccc3)c3c(NC4CCCC4)ncnc32)cc1 -17.3%
Cc1cccc(N(C)C(=O)CN2C(=O)COc3ccc(S(=O)(=O)N4CCCCCC4)cc32)c1 -18.7%
COc1cc(OC)c(OC)cc1CNCCSc1nnnn1-c1ccccc1 -17.2%
Cn1c(CNC(=O)CSc2n[nH]c(-c3ccccc3Cl)n2)nc2ccccc21 4.82%
CCN(Cc1ccccc1)C(=O)C1CCN(c2ncnc3c2nc2n3CCCCC2)CC1 -29.1%
COc1ccc(-c2cnc(C)o2)cc1S(=O)(=O)Nc1ccc(F)cc1F -10.1%
COc1cc(OC)c(NC(=O)c2cn(C3CCCC3)c(=O)c3c2c2ccccc2n3C)cc1Cl -7.35%
